Values joined by “and” are separate entries in the source; they are usually repeats but may differ in a detail not shown here. Identical values can stand only once. About 25,000 (6.9%) of roughly 360,000 compounds were called active. Inconclusive means that the source gave no clear call. Such entries were picked first, then a sample of the others. Calls come from the whole dose curve; as a rule, active = well fitted inhibition curve with a large enough effect; inconclusive = small, poorly fitted or top-dose-only effect; inactive = flat fitted curve, though single readings scatter. A potency beside an inconclusive call is a rough fit, not a confirmed value.
target: Luciferin 4-monooxygenase (Photinus pyralis) (UniProt P08659); assay: qHTS profiling assay for firefly luciferase inhibitor/activator using purifed enzyme and Km concentrations of substrates (counterscreen for miR-21 project); details: purified FLuc, luminescence inhibition; series mostly up to 57.5 µM; note: nearly all actives have a fitted effect of over 55% in size
How it was run: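 Purified P. pyralis luciferase (10nM final) with 10uM D-luciferin and 10uM ATP (Km levels) in 50mM Tris acetate pH 7.5, 10mM Mg acetate, 0.01% Tween-20, 0.05% BSA; qHTS 6-point titration, ~60 µM downward; luminescence read.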
Potency is the fitted concentration of half-maximal effect; tags give direction and shape of the fitted curve.

UniProt P08659, sequence (P08659 whole entry, looked up): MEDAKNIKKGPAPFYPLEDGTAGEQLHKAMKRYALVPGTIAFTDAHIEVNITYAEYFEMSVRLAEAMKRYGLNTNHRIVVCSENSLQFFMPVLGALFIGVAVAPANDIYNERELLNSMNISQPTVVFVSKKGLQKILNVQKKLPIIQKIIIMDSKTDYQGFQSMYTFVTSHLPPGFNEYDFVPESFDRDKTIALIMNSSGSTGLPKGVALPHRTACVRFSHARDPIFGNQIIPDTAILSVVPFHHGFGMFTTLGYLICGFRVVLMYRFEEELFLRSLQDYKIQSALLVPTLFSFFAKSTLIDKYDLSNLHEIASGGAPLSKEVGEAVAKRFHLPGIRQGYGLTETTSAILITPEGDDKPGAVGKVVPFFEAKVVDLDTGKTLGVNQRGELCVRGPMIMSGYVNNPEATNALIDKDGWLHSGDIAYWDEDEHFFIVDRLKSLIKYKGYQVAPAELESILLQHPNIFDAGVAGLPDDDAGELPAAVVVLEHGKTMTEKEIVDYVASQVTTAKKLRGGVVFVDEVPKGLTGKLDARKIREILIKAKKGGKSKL

Row | Compound | Potency
1 | O=C(Nc1ccc(Cl)c(C(F)(F)F)c1)C(=O)N1CCCCC1 | inconclusive: 37.9 µM [inhibitor, partial curve, poor fit]
2 | CC(C)OC(=O)CC(=O)CSc1nc2c(cc1C#N)CCCC2 | active: 13.5 µM
3 | COc1cccc(-c2nc(-c3ccncc3)no2)c1 | active: 5.36 µM
4 | CCCCOc1ccc(S(=O)(=O)Nc2cccc(-c3ccc(N4CCOCC4)nn3)c2)cc1 | active: 13.5 µM
5 | CC(Sc1nc(-c2ccccc2)c(C#N)c(=O)[nH]1)C(=O)Nc1ccc(F)cc1 (stereo not drawn) | active: 16.9 µM
6 | CCN(CC(=O)NCc1ccc(F)cc1)C(=O)c1ccc2c(c1)OCO2 | inactive
7 | CCc1ccc(Nc2nnc(SCC(=O)c3ccc4c(c3)NC(=O)CO4)s2)cc1 | inconclusive: 2.13 µM [inhibitor, full curve]
8 | Cc1ccc(C(=O)/C=C2/NC(=O)CS2)cc1 | active: 6.75 µM
9 | Cn1c(SCC(=O)Nc2ccc3c(c2)oc2ccccc23)nnc1-c1ccccc1 | inconclusive: 1.9 µM [inhibitor, full curve]
10 | CCOC(=O)c1c(C)nc(C)c(C(=O)OCC)c1-c1ccccc1 | active: 6.01 µM
11 | O=C(Nc1ccc2c(c1)OCO2)c1ccc(Cl)nc1 | inconclusive: 26.9 µM [inhibitor, single point]
12 | O=S(=O)(c1ccccc1)c1nc(-c2cccc(Cl)c2)oc1NCc1ccccc1 | inactive
13 | CC(O)CNC(=O)C1CCN(Cc2ccc(OCc3ccccc3)cc2)CC1 (stereo not drawn) | inconclusive: 26.9 µM [inhibitor, single point]
14 | CCOc1ccc(N2CC(c3nc4ccccc4n3CCCOc3ccc(OC)cc3)CC2=O)cc1 (stereo not drawn) | active: 23.9 µM
15 | Cc1ccc2c(c1)c(=O)c1ccccc1n2CCCC(=O)Nc1ccc(F)cc1F | inconclusive: 13.5 µM [inhibitor, partial curve, poor fit]
16 | O=C(CSc1ccc(Cl)cc1)c1ccco1 | inconclusive: 19 µM [inhibitor, partial curve]
17 | CC(=O)C1=C(C)NC(C)=C(C(C)=O)C1c1cn(-c2ccccc2)nc1-c1cccs1 | inconclusive: 21.3 µM [inhibitor, single point]
18 | COc1ccc(/C=C2\SC(=S)N(C(C(=O)O)c3ccccc3)C2=O)c(OC)c1 (stereo not drawn) | active: 23.9 µM
19 | COc1cc(S(=O)(=O)N2CCN=C2c2ccccc2)ccc1F | inactive
20 | CN1OC(COC(=O)c2ccc(Cl)cc2Cl)CC1c1ccccc1 (stereo not drawn) | inconclusive: 37.9 µM [inhibitor, partial curve, poor fit]
21 | c1ccc2nc(-c3nc4ccccc4o3)ccc2c1 | active: 0.239 µM
22 | Cc1ccc(CSc2nc(=O)c3c(C)cc(C)nc3n2C2CC2)cc1 | inconclusive: 37.9 µM [inhibitor, partial curve, poor fit]
23 | Cc1ccc(NC(=O)Cn2c(=O)oc3cc(S(=O)(=O)N4CCC(C)CC4)ccc32)cc1Cl | inconclusive: 12 µM [inhibitor, partial curve, poor fit]
24 | O=C(COc1ccccc1C(=O)N/N=C\c1ccc(O)c(O)c1)N/N=C/c1ccc(O)c(O)c1 | active: 6.75 µM
25 | O=C(NCC1OCCc2ccccc21)c1ccc(NC(=O)c2cccc(Br)c2)cc1 (stereo not drawn) | inactive

Row | Compound | Potency
26 | O=C(O)c1ccc(-c2ccc(/C=N/Nc3ccc([N+](=O)[O-])cc3)o2)cc1 | active: 16.9 µM
27 | COc1ccc(/C=C/C(=O)c2ccc3c(c2)OCO3)cc1OC | active: 15.1 µM
28 | COC(=O)c1cccnc1NC(=S)NC1CCCCC1 | inconclusive: 12 µM [inhibitor, partial curve, poor fit]
29 | COCCNC(=O)C(=O)Nc1ccc(Br)cc1 | inconclusive: 21.3 µM [inhibitor, partial curve, poor fit]
30 | O=C(/C=C/c1c(F)cccc1Cl)NCc1ccco1 | inconclusive: 15.1 µM [inhibitor, partial curve]
31 | CCOC(=O)c1c(-c2ccc(-c3ccccc3)cc2)csc1NC(=O)c1cccc(N2C(=O)CCC2=O)c1 | inactive
32 | O=C(CSc1nnc(COc2ccccc2Cl)o1)NC(=O)NCc1ccco1 | inconclusive: 37.9 µM [inhibitor, single point]
33 | O=C(Nc1ccccc1)OCN1C(=O)c2ccccc2C1=O | inconclusive: 37.9 µM [inhibitor, partial curve, poor fit]
34 | O=C(O)c1ccc(N2C(=O)c3[nH]nc(-c4ccccc4)c3C2c2cccc(F)c2)cc1 (stereo not drawn) | inactive
35 | CN(C(=O)COC(=O)c1cc(-c2ccco2)nc2ccccc12)C1CCS(=O)(=O)C1 (stereo not drawn) | inconclusive: 26.9 µM [inhibitor, partial curve]
36 | CCCCn1[nH]c(-c2ccccc2)cc1=O | inconclusive: 37.9 µM [inhibitor, partial curve, poor fit]
37 | Cc1[nH]n(C(N)=S)c(=O)c1N=Nc1ccc(S(=O)(=O)N2CCCCCC2)cc1 | active: 5.36 µM
38 | CCC(=O)Nc1ccccc1-c1nc2ccccc2n(C(C)C(=O)Nc2ccc(OC)cc2)c1=O (stereo not drawn) | inactive
39 | O=C(Nc1ccc(Br)cc1)c1cccc(OC(=S)N2CCOCC2)c1 | inconclusive: 37.9 µM [inhibitor, single point]
40 | COc1ccccc1C(=O)Nc1cc(-c2ccc(C)cc2)no1 | active: 7.57 µM and active: 6.01 µM
41 | O=[N+]([O-])c1ccc(-c2ccc(/C=N/O)o2)cc1 | inconclusive: 21.3 µM [inhibitor, single point]
42 | Cc1sc2ncnc(N3CCN(Cc4ccccc4)CC3)c2c1-c1ccc(F)cc1 | inactive
43 | COc1ccc(NC(=O)c2ccc3c(c2)C(=O)N(CC2CCCO2)C3=O)cc1O (stereo not drawn) | inconclusive: 37.9 µM [inhibitor, partial curve, poor fit]
44 | Cc1cc(Cl)c(S(=O)(=O)N2CCSCC2)cc1OCC(=O)NC1CCCCC1 | inactive
45 | Cc1nc(N2CCC(C)CC2)c2c(C)c(C(=O)Nc3ccccc3C(F)(F)F)sc2n1 | inactive
46 | COc1ccc(-c2c(-c3ccccc3OC)sc3ccccc23)cc1C=O | inconclusive: 26.9 µM [inhibitor, single point]
47 | CCCOc1ccc(-c2cc(C(F)(F)F)c(C#N)c(SCC(=O)O)n2)cc1 | inconclusive: 26.9 µM [inhibitor, single point]
48 | Nc1c(N)c2ccccc2oc1=O | inactive
49 | Cc1cccc(Nc2nc(N)c([N+](=O)[O-])c(NCc3ccccc3)n2)c1 | inconclusive: 26.9 µM [inhibitor, partial curve, poor fit]
50 | CC(C)(C)c1ccc(C(=O)NNC(=O)Cc2ccccc2)cc1 | inconclusive: 19 µM [inhibitor, single point]

Row | Compound | Potency
51 | O=C(OCc1cc(-c2ccccc2)no1)c1ccc2ccccc2n1 | inconclusive: 23.9 µM [inhibitor, single point]
52 | O=C(Nc1ccc2c(c1)OCO2)c1ccccc1SCC(=O)N1CCCC1 | inactive
53 | NS(=O)(=O)c1ccc(CNC(=O)c2scc3c2CCCC3)cc1 | inactive
54 | COc1ccc(NC(=O)c2[nH]ncc2[N+](=O)[O-])cc1 | inconclusive: 37.9 µM [inhibitor, partial curve, poor fit]
55 | CC(C)(C)c1ccc(-n2ncc3c2CCCC3NC(=O)CN2CCOC2=O)cc1 (stereo not drawn) | inconclusive: 26.9 µM [inhibitor, partial curve, poor fit]
56 | COC(=O)c1c(NC(=O)CSc2nc3ccccc3c(=O)n2-c2ccccc2)sc(C)c1C | inactive
57 | CC(C)CC(=O)NC(=S)Nc1ccc(NC(=O)c2ccco2)cc1 | inactive
58 | CC1CN(C(=O)c2c([N+](=O)[O-])cnn2C)CC(C)O1 (stereo not drawn) | inactive
59 | Cc1cccc(NC(=O)NCCOCCn2c(=O)oc3ccccc32)c1C | inactive
60 | Cc1cc(C)c2nc(N3CCCC3)c(C#N)cc2c1 | inconclusive: 21.3 µM [inhibitor, partial curve, poor fit]
61 | O=C(Cc1ccsc1)Nc1ccc(S(=O)(=O)C(F)F)cc1 | inconclusive: 23.9 µM [inhibitor, single point]
62 | O=C(CC1SCCNC1=O)Nc1ccc(Cl)cc1 (stereo not drawn) | inconclusive: 37.9 µM [inhibitor, partial curve, poor fit]
63 | Cc1ccc(-c2cc(C(=O)N3CCCC3)no2)cc1 | active: 0.757 µM
64 | O=C(NCc1ccccc1)c1ccc2nc(N3CCOCC3)sc2c1 | inconclusive: 19 µM [inhibitor, partial curve, poor fit]
65 | COc1ccc([C@H]2CC(=O)C=C(c3cccc(C#N)c3)C2)cc1 | inactive
66 | O=C(O)c1ccccc1NCc1ccco1 | inactive
67 | CN1N=C(C(=O)N2CCc3c([nH]c4ccccc34)C2c2c(F)cccc2Cl)CCC1=O (stereo not drawn) | inconclusive: 23.9 µM [inhibitor, single point]
68 | COc1ccc2[nH]c(C(=O)NCCN3CCOCC3)cc2c1 | inconclusive: 23.9 µM [inhibitor, partial curve, poor fit]
69 | COc1ccc(C2C3=C(N=C4SCC(=O)N42)c2ccccc2CC3)cc1 (stereo not drawn) | active: 10.7 µM
70 | COc1ccccc1-c1nn2c(=O)cc(C)nc2s1 | inconclusive: 23.9 µM [inhibitor, partial curve]
71 | CC(=O)Nc1ccc(S(=O)(=O)Nc2nc3ccccc3nc2Nc2ccc(N)cc2)cc1 | inconclusive: 26.9 µM [inhibitor, single point]
72 | O=C(O)CNC(=S)N(Cc1ccc(F)cc1)C1CCCCC1 | inconclusive: 37.9 µM [inhibitor, partial curve, poor fit]
73 | CC(=S)c1c(C)cc2cc(C)ccn12 | inconclusive: 23.9 µM [inhibitor, partial curve, poor fit]
